# Results taken from the supplement of paper PMC8728848.
# Some of the results follow.
# B1: Dectin2 (Homo sapiens), Q6EIG7 (protein)
# chain: MMQEQQPQSTEKRGWLSLRLWSVAGISIALLSACFIVSCVVTYHFTYGETGKRLSELHSYHSSLTCFSEGTKVPAWGCCPASWKSFGSSCYFISSEEKVWSKSEQNCVEMGAHLVVFNTEAEQNFIVQQLNESFSYFLGLSDPQGNNNWQWIDKTPYEKNVRFWHLGEPNHSAEQCASIVFWKPTGWGWNDVICETRRNSICEMNKIYL
# Columns and labels:
# Assay in all cases: glycan array binding signal (z-score within array); higher = stronger binding
# Details in all cases: glycan notation: IUPAC condensed, linker removed
# [1] = molecular target: GlcNAc(b1-3)Gal(b1-4)GlcNAc(b1-3)Gal(b1-4)GlcNAc(b1-3)Gal(b1-4)GlcNAc(b1-3)Gal(b1-4)GlcNAc(b1-2)[GlcNAc(b1-3)Gal(b1-4)GlcNAc(b1-3)Gal(b1-4)GlcNAc(b1-3)Gal(b1-4)GlcNAc(b1-3)Gal(b1-4)GlcNAc(b1-6)]Man(a1-6)[GlcNAc(b1-3)Gal(b1-4)GlcNAc(b1-3)Gal(b1-4)GlcNAc(b1-3)Gal(b1-4)GlcNAc(b1-3)Gal(b1-4)GlcNAc(b1-2)Man(a1-3)]Man(b1-4)GlcNAc(b1-4)[Fuc(a1-6)]GlcNAc
# In short: (§1)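 Columns mapping to the same glycan were averaged after glycan names were converted to IUPAC-condensed notation. The data come from 3228 arrays in the Consortium for Functional Glycomics database, limited to those with an available protein sequence. Binding is reported as a within-array Z-score averaged across arrays of one protein sequence and across linkers.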
# [2] = molecular target: GlcNAc(b1-3)Gal(b1-4)GlcNAc(b1-3)Gal(b1-4)GlcNAc(b1-3)GalNAc
# In short: as §1
# [3] = molecular target: GlcNAc(b1-3)Gal(b1-4)GlcNAc(b1-3)GalNAc
# In short: as §1
# [4] = molecular target: GlcNAc(b1-3)Gal(b1-4)GlcNAc(b1-3)[GlcNAc(b1-3)Gal(b1-4)GlcNAc(b1-3)]GalNAc
# In short: as §1
# [5] = molecular target: GlcNAc(b1-3)Gal(b1-4)GlcNAc(b1-6)[Gal(b1-3)]GalNAc
# In short: as §1
# [6] = molecular target: GlcNAc(b1-3)Gal(b1-4)GlcNAc(b1-6)[GlcNAc(b1-3)Gal(b1-3)]GalNAc
# In short: as §1
# [7] = molecular target: GlcNAc(b1-3)Gal(b1-4)GlcNAc(b1-6)[GlcNAc(b1-3)]Gal(b1-4)GlcNAc
# In short: as §1
# [8] = molecular target: GlcNAc(b1-3)GalNAc
# In short: as §1
# [9] = molecular target: GlcNAc(b1-3)Man
# In short: as §1
# [10] = molecular target: GlcNAc(b1-3)[GlcNAc(b1-4)][GlcNAc(b1-6)]GlcNAc
# In short: as §1
# [11] = molecular target: GlcNAc(b1-3)[GlcNAc(b1-6)]Gal(b1-4)GlcNAc
# In short: as §1
# [12] = molecular target: GlcNAc(b1-3)[GlcNAc(b1-6)]GalNAc
# In short: as §1
# [13] = molecular target: GlcNAc(b1-4)Gal(b1-4)GlcNAc
# In short: as §1
# [14] = molecular target: GlcNAc(b1-4)GlcNAc
# In short: as §1
# [15] = molecular target: GlcNAc(b1-4)GlcNAc(b1-4)GlcNAc
# In short: as §1
# [16] = molecular target: GlcNAc(b1-4)GlcNAc(b1-4)GlcNAc(b1-4)GlcNAc(b1-4)GlcNAc
# In short: as §1
# [17] = molecular target: GlcNAc(b1-4)GlcNAc(b1-4)GlcNAc(b1-4)GlcNAc(b1-4)GlcNAc(b1-4)GlcNAc
# In short: as §1
# [18] = molecular target: GlcNAc(b1-4)[GlcNAc(b1-6)]GalNAc
# In short: as §1
# [19] = molecular target: GlcNAc(b1-6)Gal(b1-4)GlcNAc
# In short: as §1
# [20] = molecular target: GlcNAc(b1-6)GalNAc
# In short: as §1
# [21] = molecular target: GlcNAc6S(b1-3)Gal(b1-4)GlcNAc
# In short: as §1
# [22] = molecular target: Kdn(a2-3)Gal(b1-3)GalNAc
# In short: as §1
# [23] = molecular target: Kdn(a2-3)Gal(b1-3)GlcNAc
# In short: as §1
# [24] = molecular target: Kdn(a2-3)Gal(b1-4)Glc
# In short: as §1
# [25] = molecular target: Kdn(a2-3)Gal(b1-4)GlcNAc
# In short: as §1
# [26] = molecular target: Kdn(a2-3)Gal(b1-4)[Fuc(a1-3)]GlcNAc
# In short: as §1
# [27] = molecular target: Kdn(a2-6)Gal(b1-4)GlcNAc
# In short: as §1
# [28] = molecular target: Man(a1-2)Man(a1-2)Man(a1-3)Man
# In short: as §1
# [29] = molecular target: Man(a1-2)Man(a1-2)Man(a1-6)[Man(a1-3)]Man
# In short: as §1
# [30] = molecular target: Man(a1-2)Man(a1-3)Man
# In short: as §1
# [31] = molecular target: Man(a1-2)Man(a1-3)[Man(a1-2)Man(a1-6)]Man
# In short: as §1
# [32] = molecular target: Man(a1-2)Man(a1-3)[Man(a1-2)Man(a1-6)]Man(a1-6)[Man(a1-2)Man(a1-2)Man(a1-3)]Man
# In short: as §1
# [33] = molecular target: Man(a1-2)Man(a1-3)[Man(a1-2)Man(a1-6)]Man(a1-6)[Man(a1-2)Man(a1-2)Man(a1-3)]Man(b1-4)GlcNAc(b1-4)GlcNAc
# In short: as §1
# [34] = molecular target: Man(a1-2)Man(a1-3)[Man(a1-6)]Man(a1-6)[Man(a1-2)Man(a1-3)]Man(b1-4)GlcNAc(b1-4)GlcNAc
# In short: as §1
# [35] = molecular target: Man(a1-2)Man(a1-6)[Man(a1-3)]Man(a1-6)[Man(a1-2)Man(a1-2)Man(a1-3)]Man
# In short: as §1
# [36] = molecular target: Man(a1-2)Man(a1-6)[Man(a1-3)]Man(a1-6)[Man(a1-2)Man(a1-2)Man(a1-3)]Man(b1-4)GlcNAc(b1-4)GlcNAc
# In short: as §1
# [37] = molecular target: Man(a1-3)[Man(a1-6)]Man
# In short: as §1
# [38] = molecular target: Man(a1-3)[Man(a1-6)]Man(a1-6)[Man(a1-2)Man(a1-3)]Man(b1-4)GlcNAc(b1-4)GlcNAc
# In short: as §1
# [39] = molecular target: Man(a1-3)[Man(a1-6)]Man(a1-6)[Man(a1-3)]Man
# In short: as §1
# [40] = molecular target: Man(a1-3)[Man(a1-6)]Man(a1-6)[Man(a1-3)]Man(b1-4)GlcNAc(b1-4)GlcNAc
# In short: as §1
# [41] = molecular target: Man(a1-3)[Man(a1-6)]Man(b1-4)GlcNAc(b1-4)GlcNAc
# In short: as §1
# [42] = molecular target: Man(a1-3)[Man(a1-6)]Man(b1-4)GlcNAc(b1-4)[Fuc(a1-6)]GlcNAc
# In short: as §1
# [43] = molecular target: Man(a1-6)Man
# In short: as §1
# [44] = molecular target: Man(b1-4)GlcNAc
# In short: as §1
# [45] = molecular target: MurNAc(b1-4)GlcNAc
# In short: as §1
binder,measurement,setting,value
B1,glycan array binding signal (z-score),[1],0.171
same,glycan array binding signal (z-score),[2],-0.197
same,glycan array binding signal (z-score),[3],-0.165
same,glycan array binding signal (z-score),[4],-0.182
same,glycan array binding signal (z-score),[5],-0.196
same,glycan array binding signal (z-score),[6],-0.118
same,glycan array binding signal (z-score),[7],-0.194
same,glycan array binding signal (z-score),[8],-0.172
same,glycan array binding signal (z-score),[9],0.127
same,glycan array binding signal (z-score),[10],1.3
same,glycan array binding signal (z-score),[11],-0.212
same,glycan array binding signal (z-score),[12],-0.17
same,glycan array binding signal (z-score),[13],-0.148
same,glycan array binding signal (z-score),[14],-0.182
same,glycan array binding signal (z-score),[15],-0.202
same,glycan array binding signal (z-score),[16],-0.186
same,glycan array binding signal (z-score),[17],-0.166
same,glycan array binding signal (z-score),[18],1.29
same,glycan array binding signal (z-score),[19],-0.078
same,glycan array binding signal (z-score),[20],-0.142
same,glycan array binding signal (z-score),[21],-0.166
same,glycan array binding signal (z-score),[22],-0.142
same,glycan array binding signal (z-score),[23],-0.199
same,glycan array binding signal (z-score),[24],-0.166
same,glycan array binding signal (z-score),[25],-0.172
same,glycan array binding signal (z-score),[26],-0.14
same,glycan array binding signal (z-score),[27],-0.177
same,glycan array binding signal (z-score),[28],10.3
same,glycan array binding signal (z-score),[29],13.5
same,glycan array binding signal (z-score),[30],4.35
same,glycan array binding signal (z-score),[31],7.43
same,glycan array binding signal (z-score),[32],13.9
same,glycan array binding signal (z-score),[33],-0.034
same,glycan array binding signal (z-score),[34],0.767
same,glycan array binding signal (z-score),[35],3.05
same,glycan array binding signal (z-score),[36],1.38
same,glycan array binding signal (z-score),[37],0.968
same,glycan array binding signal (z-score),[38],1.16
same,glycan array binding signal (z-score),[39],0.439
same,glycan array binding signal (z-score),[40],-0.099
same,glycan array binding signal (z-score),[41],0.154
same,glycan array binding signal (z-score),[42],0.486
same,glycan array binding signal (z-score),[43],-0.154
same,glycan array binding signal (z-score),[44],-0.061
same,glycan array binding signal (z-score),[45],-0.134
